# Results as given in the supplement of paper PMC7826260.
# The list shows a part of the results. One pool of 16,384 single-stranded DNAs met each Rep nickase domain in vitro (1 h at 37 °C, 3 µM enzyme); the outer parts of the 90-letter strands are left off. Numbers give uncut DNA relative to the enzyme-free pool, as log2; the lower, the more was cut; hits are not called. Shares of all reads are compared; where an enzyme cuts many sequences, the uncut ones exceed 0.
# Columns and labels:
# Assay in all cases: uncleaved DNA left, log2 of reads against the no-enzyme library (log2 ratio); higher = less cleavage (more negative = more Rep cleavage of the k-mer); sequences stand for … in CTCGTCCG…ACCGGAGA
# [1] = test system: T1, Rep nickase domain of Muscovy duck circovirus
# T1 sequence (residues 1-111, tag not shown): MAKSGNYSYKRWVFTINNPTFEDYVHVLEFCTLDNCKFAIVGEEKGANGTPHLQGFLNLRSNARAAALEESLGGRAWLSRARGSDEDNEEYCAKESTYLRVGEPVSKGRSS
# Method: (§1)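 A pool of 90-nt single-stranded DNAs with seven random bases just before the constant AC of the nick site (name = the seven bases) was cut by 3 µM recombinant His6-SUMO-tagged Rep nickase domain (300 nM DNA, 50 mM HEPES pH 8.0, 50 mM NaCl, 1 mM MnCl2, 1 h, 37 °C, three replicates). Uncut DNA was amplified and sequenced.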
# [2] = test system: T2, Rep nickase domain of banana bunchy top virus
# T2 sequence (residues 1-94, tag not shown): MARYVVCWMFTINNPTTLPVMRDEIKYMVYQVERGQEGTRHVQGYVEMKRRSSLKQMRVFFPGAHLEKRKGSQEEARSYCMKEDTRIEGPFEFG
# Method: as §1
# [3] = test system: T3, Rep nickase domain of cabbage leaf curl virus
# T3 sequence (residues 1-116, tag not shown): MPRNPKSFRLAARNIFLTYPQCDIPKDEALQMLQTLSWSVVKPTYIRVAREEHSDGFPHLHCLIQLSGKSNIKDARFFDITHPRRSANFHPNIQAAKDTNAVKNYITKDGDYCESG
# Method: as §1
# [4] = test system: T4, Rep nickase domain of chickpea chlorotic dwarf virus
# T4 sequence (residues 1-124, tag not shown): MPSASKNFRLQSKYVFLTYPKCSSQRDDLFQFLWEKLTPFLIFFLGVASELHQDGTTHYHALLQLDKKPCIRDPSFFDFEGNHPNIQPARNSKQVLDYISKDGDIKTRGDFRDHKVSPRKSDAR
# Method: as §1
# [5] = test system: T5, Rep nickase domain of faba bean necrotic yellows virus
# T5 sequence (residues 1-98, tag not shown): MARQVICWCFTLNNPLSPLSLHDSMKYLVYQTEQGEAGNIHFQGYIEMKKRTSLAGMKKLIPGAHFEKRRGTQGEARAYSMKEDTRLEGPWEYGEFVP
# Method: as §1
# [6] = test system: T6, Rep nickase domain of maize striate mosaic virus
# T6 sequence (residues 1-117, tag not shown): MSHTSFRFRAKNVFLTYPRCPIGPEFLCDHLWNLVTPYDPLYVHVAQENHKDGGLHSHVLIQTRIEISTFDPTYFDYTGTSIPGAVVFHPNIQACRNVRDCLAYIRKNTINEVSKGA
# Method: as §1
# [7] = test system: T7, Rep nickase domain of porcine circovirus 2
# T7 sequence (residues 2-116, tag not shown): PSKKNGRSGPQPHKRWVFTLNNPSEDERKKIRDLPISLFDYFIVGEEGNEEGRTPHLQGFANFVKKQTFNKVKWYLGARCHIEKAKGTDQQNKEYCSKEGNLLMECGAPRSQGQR
# Method: as §1
# [8] = test system: T8, Rep nickase domain of tomato golden mosaic virus
# T8 sequence (residues 1-124, tag not shown): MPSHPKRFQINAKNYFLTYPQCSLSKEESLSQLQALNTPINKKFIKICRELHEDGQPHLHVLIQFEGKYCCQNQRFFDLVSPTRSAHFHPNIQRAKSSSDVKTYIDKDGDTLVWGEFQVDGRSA
# Method: as §1
# [9] = test system: T9, Rep nickase domain of tomato yellow leaf curl virus
# T9 sequence (residues 1-136, tag not shown): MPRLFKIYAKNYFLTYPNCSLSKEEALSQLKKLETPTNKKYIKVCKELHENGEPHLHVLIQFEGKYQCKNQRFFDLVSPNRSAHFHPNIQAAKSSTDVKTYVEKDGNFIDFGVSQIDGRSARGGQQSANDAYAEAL
# Method: as §1
# [10] = test system: T10, Rep nickase domain of wheat dwarf virus
# T10 sequence (residues 1-137, tag not shown): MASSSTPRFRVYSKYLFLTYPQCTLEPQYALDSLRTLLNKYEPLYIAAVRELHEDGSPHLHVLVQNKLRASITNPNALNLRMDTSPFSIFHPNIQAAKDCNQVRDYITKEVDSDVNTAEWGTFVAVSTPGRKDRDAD
# Method: as §1
Sequence,uncleaved DNA left (log2) [1],uncleaved DNA left (log2) [2],uncleaved DNA left (log2) [3],uncleaved DNA left (log2) [4],uncleaved DNA left (log2) [5],uncleaved DNA left (log2) [6],uncleaved DNA left (log2) [7],uncleaved DNA left (log2) [8],uncleaved DNA left (log2) [9],uncleaved DNA left (log2) [10]
TTGGGTG,0.0548,-0.0508,-0.433,-0.531,-0.0552,-0.698,0.0958,-0.159,-0.0344,-0.202
CGTACTG,-0.0676,-0.111,-0.00215,0.603,-0.078,1.63,0.072,-0.165,-0.0473,0.0573
ACGTACT,-3.02,-0.704,-0.6,-2.5,-1.35,-0.746,-3.65,-0.189,-0.224,-0.339
CTTTGAC,-0.143,-0.0822,-0.217,-0.528,-0.0244,-0.922,-0.12,-0.0929,-0.111,-0.0487
GCTCGCG,-0.0837,-0.096,-0.54,0.823,-0.027,-0.0534,0.0294,-0.263,-0.039,-0.193
TGGACTA,0.0896,0.0683,0.81,1.93,-0.0284,2.18,0.159,-0.00424,0.0127,0.165
TCTGATC,0.228,0.038,0.264,0.447,0.0861,0.606,0.175,0.0566,0.143,0.163
TTAATTA,0.089,0.056,0.35,-0.691,0.185,0.0544,-0.0592,0.0538,0.0858,0.118
AAAGAGT,0.0761,-4.1e-05,0.0688,0.48,0.0571,0.682,0.186,0.0558,-0.0383,0.0712
CCCCGTT,-0.0493,-0.275,-0.274,-1.29,-0.193,-0.604,-0.301,-0.228,-0.244,-0.245
CCTCGCC,-0.0295,0.0936,-0.314,-0.274,-0.0859,-0.686,0.0547,-0.134,-0.0216,-0.133
CGGCTGG,-0.00288,0.124,0.0975,0.645,0.00783,1.32,0.182,0.147,-0.0533,0.1
GGATTCG,0.0963,0.0373,-0.659,-0.017,0.0213,-0.626,0.176,0.0144,0.11,-0.0613
AAATACG,-0.0514,-0.0577,-0.789,-0.00886,-0.0103,-0.905,0.173,-0.0191,-0.0466,-0.124
CGACAGC,-0.0648,-0.101,-0.114,0.519,0.0104,0.964,-0.0168,-0.048,-0.149,-0.0309
CCCCCGA,0.00482,-0.0145,-0.276,-0.507,0.0384,-0.628,0.0222,0.111,0.00456,-0.046
TGTAGTA,0.159,0.0421,0.163,-0.241,0.0116,0.253,-0.104,0.122,0.103,-0.00523
TAAACGA,0.0181,0.00733,-0.257,-1.32,0.0399,-1.04,0.153,-0.087,-0.0064,-0.146
CGTCAGC,-0.0291,0.133,0.412,0.789,0.114,0.56,0.21,0.0804,0.151,0.161
CCGTAGT,-1.61,-0.29,-1.04,-1.45,-0.736,-0.895,-3.23,-0.469,-0.0541,-1.18

Sequence,uncleaved DNA left (log2) [1],uncleaved DNA left (log2) [2],uncleaved DNA left (log2) [3],uncleaved DNA left (log2) [4],uncleaved DNA left (log2) [5],uncleaved DNA left (log2) [6],uncleaved DNA left (log2) [7],uncleaved DNA left (log2) [8],uncleaved DNA left (log2) [9],uncleaved DNA left (log2) [10]
CGCAAGA,0.105,0.0856,0.205,0.131,0.167,-0.549,0.176,0.147,0.0887,0.0967
TCCGTAT,-0.151,-0.287,-0.0156,-0.26,-0.162,0.253,-0.178,-0.158,-0.0294,-0.114
ACATCTG,-0.0035,-0.0138,-0.711,-0.498,-0.123,-0.882,0.0504,-0.0659,0.0312,-0.0606
ACCCAGT,-0.00605,-0.0329,-0.295,-0.535,0.0419,-0.841,-0.102,0.0109,-0.0793,-0.0747
AGTCCGC,0.0121,-0.0405,-0.236,-0.213,-0.0861,-0.787,-0.0904,-0.0468,0.0302,-0.0368
ACCGCTG,-0.139,-0.0832,0.302,1.42,-0.0912,1.14,-0.0129,0.134,-0.113,-0.00823
GGTTTAC,-0.00788,0.1,0.268,0.822,-0.00375,1.69,0.129,0.0804,0.0398,0.0628
TAGGCCA,0.0613,0.0645,0.166,-0.893,-0.0145,0.515,-0.359,0.0192,0.0835,-0.00393
GCTACCA,-0.133,-0.0429,0.00907,-0.828,-0.0741,0.301,-0.234,-0.0542,-0.0803,-0.0269
CCAAGTG,-0.0933,-0.142,0.0182,0.661,-0.126,0.509,0.0736,-0.0392,-0.166,-0.0569
AACAGGT,-0.00903,0.0683,0.325,1.04,0.0716,1.27,0.0464,-0.0147,-0.0179,0.000686
GAATAGG,0.122,-0.0214,0.307,1.08,0.0509,0.905,0.151,0.112,-0.032,0.121
TGTCATT,-0.0308,0.184,0.39,-0.163,-0.2,1.06,-2.06,-0.144,0.256,0.135
GTTAGCC,0.132,0.0127,0.246,0.731,0.104,0.778,0.139,0.0497,0.0779,0.0714
CAGCTTA,0.203,0.0604,0.0461,-1.98,0.164,-0.113,-0.947,0.196,0.0803,0.117
GCGCCTT,-0.0371,-0.0821,0.0343,-0.0899,-0.0655,0.838,-0.147,-0.063,-0.00863,0.0924
GACCACC,-0.0893,-0.0926,0.147,0.136,-0.112,0.252,-0.167,-0.0329,-0.0587,0.0743
GGAAACC,0.0513,0.135,0.552,1.2,0.0896,1.7,0.143,0.0637,0.0524,0.141
CATGCCG,-0.0333,-0.0973,-0.722,0.189,0.0351,-0.751,0.0733,-0.00421,-0.0355,-0.126
TTAGAAA,0.0196,-0.0266,0.24,0.128,-0.0499,0.0492,0.0655,0.164,-0.00583,0.0213

Sequence,uncleaved DNA left (log2) [1],uncleaved DNA left (log2) [2],uncleaved DNA left (log2) [3],uncleaved DNA left (log2) [4],uncleaved DNA left (log2) [5],uncleaved DNA left (log2) [6],uncleaved DNA left (log2) [7],uncleaved DNA left (log2) [8],uncleaved DNA left (log2) [9],uncleaved DNA left (log2) [10]
CTTCAAT,0.102,0.0737,-0.0699,-0.647,0.0432,-0.597,-0.213,-0.0548,-0.0141,-0.0541
AGGGGCT,-0.0453,0.0454,0.439,1.23,-0.0221,1.69,0.198,0.073,-0.0812,0.102
GTAGAAT,-0.0651,-0.0557,0.268,0.76,-0.102,1.78,0.00615,0.0828,0.0822,0.133
AGGGGGG,0.0928,0.0206,-0.0518,0.214,0.0869,-0.0655,0.238,0.0996,0.0801,-0.0142
GGGTCGA,-0.0417,0.0653,0.83,1.92,-0.0475,2.21,0.231,0.0941,0.0655,0.111
CACCCCA,-0.296,-0.118,-0.227,-2.2,-0.135,-0.598,-0.625,-0.216,-0.0972,-0.0636
CATCGCC,0.135,0.0214,-0.224,-0.221,0.174,-0.784,0.187,0.159,0.0815,0.0848
CTACCAC,-0.201,-0.14,-0.265,-1.9,-0.156,-0.807,-0.812,-0.222,-0.00598,-0.129
GCACAGT,0.0663,-0.0456,-0.0294,0.123,0.00431,-0.168,0.0174,-0.0711,0.0498,0.0573
CTCACGC,0.0605,-0.087,-0.0114,-0.407,-0.0362,-0.666,0.11,-0.0438,-0.0114,-0.0603
TAGCATG,0.0011,-0.108,-0.0397,0.377,-0.0496,0.423,0.18,-0.0245,-0.283,-0.0512
GGTGAGT,-0.122,-0.00686,0.607,1.36,-0.0169,1.81,0.0483,-0.103,-0.0975,-0.0646
AAGATAC,0.134,0.0405,-0.0537,-0.0505,0.18,-0.561,0.209,-0.00516,0.0431,0.0999
TCTTCCA,-0.0864,-0.0313,0.146,-1.18,0.0944,-0.388,-0.136,-0.0591,0.0106,0.0425
CCGCGCG,0.00481,-0.0438,-0.522,0.316,0.0827,-0.485,0.1,-0.0919,-0.07,-0.0397
GGTTTCT,-0.33,0.0582,0.318,0.622,-0.105,1.6,-0.531,-0.0222,0.104,0.0226
AACGCTC,0.0982,0.018,0.0954,-0.208,0.0328,0.346,0.118,0.0615,0.0328,0.00179
CACGTCT,-0.0627,-0.0375,-0.572,-2.66,0.0401,-0.885,-0.35,-0.00964,0.00025,-0.157
